Data on one molecule can be found in patent CN106928350A.

This experiment has as its target H15 HA (Influenza A virus, H15 subtype (strain not stated)). Nature of the experiment: SPR, Fab amine-coupled on CM5 chip, HA in flow. For orientation: Surface plasmon resonance follows binding to a sensor surface in real time, without labels.

B1: AF4H1K1 Fab (Fab, V domains shown)
VH: QVQLVESGGGVVQPGTSLRLSCEASGFTSSAYAMHWVRQAPGKGLEWVAVITFDGGYQYYADSVKGRFTISRDISRNTLHLHMNSLRAEDTAVYYCARDPLTKLLPFDWVSGGYFDYWGQGTLVTVSS
VL: DIVMTQSPGTLSLSPGERATLS[letters of about 80 residues left out]FGQGTKVEIK
B1 had a Kd of 1800 nM.

Usually Kd stands for the constant that tells how readily two partners part at equilibrium. Lower therefore signals a tighter complex.
